Hit rate of the full screen: of about 52,000 compounds, about 1,700 (3.3%) were called active. No stated cut-off is given here; in the data, active means survival mostly below about 52% (no sharp cut-off); inactive means mostly above about 56%. The list shows a part of the results.

In this experiment the test system is Wild type. As to the kind of experiment: growth inhibition of S. aureus wild type versus tarO mutant, primary screen, teichoic acid synthesis inhibitors, RN4220, OD600 (AID 463173). The following applies: S. aureus RN4220 wild type/DeltatarO growth, OD600, 18 h, hits give low values, screened at 18.75 µg/mL (by protocol).
On to `CCc1ccc(-n2nc3cc(C)c(NC(=O)c4cc(OC)cc(OC)c4)cc3n2)cc1`, for which the survival was inactive: 69%.
Regarding `Cc1c(N=Cc2cccnc2)c(=O)n(-c2ccccc2)n1C`, the survival is inactive: 108%.
With `Cc1cccc(CSCc2ccc(C(=O)NCCc3ccccc3)o2)c1` the figure was inactive: 68%; with `O=C(c1cc2ccccc2oc1=O)N1CCN(c2ccc(F)cc2)CC1`, inactive: 65%; with `Cc1cc(C)c2c(CC(=O)Nc3ccc(S(=O)(=O)N4CCCCC4)cc3)coc2c1`, inactive: 85%.
Next, `COc1ccc(-c2ccc(CCC(=O)O)[nH]2)cc1`: inactive: 123%.
With `COc1ccccc1CCNC(=O)Cc1c(C)c2cc3c(C)coc3cc2oc1=O` the figure was inactive: 85%.
As to `CC(=O)c1ccc(NC(=O)CN(C)S(=O)(=O)c2cc3c(cc2Cl)NC(=O)CO3)cc1`, the survival was inactive: 81%.
Next, `CCCN(CCC)S(=O)(=O)c1ccc(C(=O)Nc2cccc(-c3nc4ccccc4[nH]3)c2)cc1`: inactive: 78%.
With `CCOc1cc(-c2ccc(OC(=O)c3ccc(C)cc3)c(OC)c2)cc(=O)c2c(C)oc(C)c12` the figure was inactive: 109%; with `Nc1c(-c2nc(-c3ccccc3)no2)nnn1CC(=O)Nc1cccc(F)c1`, inactive: 56%; with `CCN(CC)CCN(C(=O)c1ccco1)c1nc2cc(C)cc(C)c2s1`, inactive: 72%.
Take `CCOC(=O)c1ccc(Nc2c(-c3cccc(O)c3)nc3nc[nH]n23)cc1`: the survival is inactive: 64%.
Next, `N#Cc1c(-n2ncnc2-c2ccccc2C(F)(F)F)sc2c1CCCCC2`: active: 4%; `Cc1ccc(NCc2cccn2-c2nnc(N3CCC(C(=O)NCCC(C)C)CC3)s2)cc1`: inactive: 102%; `COc1cc(NC(=O)CNS(=O)(=O)c2cccs2)cc(OC)c1OC`: inactive: 72%.
Next, `O=C(Nc1ccc(NC(=O)C2CC2)nc1)c1cccc(F)c1`: inactive: 105%; `O=c1[nH]nc(-c2ccccc2)c2cc3c(=O)[nH]nc(-c4ccccc4)c3cc12`: inactive: 111%.
In the case of `COc1cccc(C2=NS(=O)(=O)N(C)C(C(=O)Nc3ccccc3SC)=C2)c1`, the survival is inactive: 97%.
Turning to `CCOc1ccc(S(=O)(=O)NCCc2csc3nc(-c4ccc(F)cc4)nn23)cc1`, the survival is inactive: 99%.
Next, `Cc1ccc(C)c(Cn2c(=O)n(Cc3ccccc3)c(=O)c3c2c2cc(C)ccc2n3C)c1`: inactive: 83%.
Next, `CCCC(=O)Nc1cc(C)c(NC(=O)CCC)cn1`: inactive: 91%; `O=C(NCc1cccs1)c1ccc(CSc2nc3ccncc3n2Cc2ccccc2)cc1`: inactive: 127%.
With `CC1CCC(NC(=O)c2ccc(CS(=O)(=O)c3cccc(C(F)(F)F)c3)o2)CC1` (centres undefined) the figure was inactive: 95%; with `Cc1ccc(Cl)cc1N1CCN(CCCNC(=O)C2COc3ccccc3C2)CC1` (centres undefined), inactive: 77%.
Consider `Cc1ccc(C(=O)Nc2ccc(S(=O)(=O)Nc3onc(C)c3C)cc2)cc1`, for which the survival was inactive: 75%.
Next, `CCOC(=O)c1ccc(NC(=O)Cn2c(=O)cc(C(F)(F)F)c3c(C)nn(C)c32)cc1`: inactive: 66%.
With `COc1ccc(CNC(=O)Cn2c(=O)cc(C)c3c(C)nn(-c4cccc(Cl)c4C)c32)cc1` the figure was inactive: 80%; with `CCc1ccc2nc3sc(C(N)=O)c(N)c3cc2c1`, inactive: 109%.
Next, `Fc1ccc(CSc2nc(NCc3ccccc3)c3ccccc3n2)cc1`: inactive: 63%.
On to `COc1ccc(-c2cc(C(=O)Nc3cccc(O)c3)on2)cc1OC`, for which the survival is inactive: 88%.
Next, `COc1cc(NC(=O)NCCN2CCN(c3ccccc3)CC2)cc(OC)c1OC`: inactive: 73%.
Next, `COc1ccc(C(=O)NCCn2cc(SC(C)c3ccccc3)c3ccccc32)cc1OC` (centres undefined): inactive: 73%; `Cc1ccc(N(C)C(=O)CCS(=O)(=O)c2cc3c(cc2Cl)NC(=O)CO3)cc1`: inactive: 88%.
With `O=C1CSC(=O)N1CCOc1ccc(F)cc1`, the survival is inactive: 107%.
Next, `CCOC(=O)Cn1cnc2scc(-c3ccccc3)c2c1=O`: inactive: 115%.
With `Nc1cnc2cccc3c2c1-c1ccccc1C3=O` the figure was inactive: 133%; with `CCN(CC)c1ccc2cc(-c3nc(-c4ccccc4F)no3)c(=O)oc2c1`, inactive: 93%; with `Cc1cc(C)c(S(=O)(=O)Nc2ccc(-c3ccc(N4CCCCCC4)nn3)cc2)cc1C`, inactive: 65%.
Turning to `CCCCn1c(SCC(N)=O)nnc1-c1ccco1`, the survival is inactive: 106%.
Next, `COC(=O)Cn1cc(C(=O)c2cccs2)c2ccccc21`: inactive: 107%; `O=C(C1COc2ccccc2O1)N1CCCC1` (centres undefined): inactive: 105%; `Cc1cccc(NC(=O)CSc2nc3c(sc4ccccc43)c(=O)n2CCCC(=O)NC2CCCC2)c1`: inactive: 90%.
With `Cc1cccc(C(=O)Nc2ccc(S(=O)(=O)N(Cc3ccccc3)c3ccccc3)cc2)c1` the figure was inactive: 83%; with `CCC(C)NC(=O)CSc1nc2cc3c(cc2c(=O)n1Cc1ccc(C(=O)NCCc2ccc(OC)c(OC)c2)cc1)OCO3` (centres undefined), inactive: 100%; with `Nc1ncnc2c1ncn2C1OC(C(=O)O)C(O)C1O` (centres undefined), inactive: 108%.
Next, `CCc1ccc(NC(=O)Nc2nnc(N(C)C3CCCCC3)s2)cc1`: inactive: 112%; `O=C(Nc1cccc(C(F)(F)F)c1)c1ccc2snnc2c1`: inactive: 118%; `CC(=O)c1ccc(NC(=O)Cn2c(=O)nc(-c3ccccc3)c3cc(Cl)ccc32)cc1`: inactive: 115%.
Regarding `COc1cccc(NC(=O)c2oc3ccccc3c2NC(=O)c2cc3ccccc3o2)c1`, the survival is inactive: 72%.
With `Cc1cccc(N2CCN(C(=O)C3CCN(c4ncnc5c4nc4n5CCCCC4)CC3)CC2)c1C` the figure was inactive: 81%; with `CCOC(=O)C1CCCN(c2ncnc3c2nnn3C)C1` (centres undefined), inactive: 121%.
Next, `O=S(=O)(Nc1ccc(F)cc1F)c1ccc(-n2cccn2)cc1`: inactive: 67%.
Next, `COCCn1c(SCC(=O)c2c[nH]c3ccccc23)nc2cc(C(=O)NC(C)C)ccc2c1=O`: active: 14%; `Cc1nc2ccn(Cc3cccnc3)c(=O)c2cc1C(=O)Nc1ccc(F)cc1F`: inactive: 81%; `COCCCNC(=O)c1ccc(C)c(-n2c(C)nc3cccnc32)c1`: inactive: 68%.
As for `CCOc1ccc(CCNC(=O)c2cc3c(s2)-c2c(C)cccc2OC3)cc1`, the survival was inactive: 90%.
Next, `CN1/C(=C/C(=O)C2CCC2)Sc2ccccc21`: inactive: 107%; `O=C(CN1C(=O)CCc2cc(S(=O)(=O)N3CCOCC3)ccc21)NCc1ccc(Cl)cc1`: inactive: 45%.

Source of the values: PubChem BioAssay AID463173 (ICCB-Longwood Screening Facility, Harvard Medical School, 2010).
